From the supplement of paper PMC6828730
Structures can show the parent of a compound that is named as a salt. Some of the results follow. Single values are uncertain, as repeats are few or missing.

Tests used:
[1] = tested on: hiPSC-derived cardiomyocytes; test: time to death of most cells in well after compound addition (days); higher = less cardiotoxic; settings: screen: 1; 10 µM
[2] = tested on: hiPSC-derived cardiomyocytes; test: time to death of most cells in well after compound addition (days); higher = less cardiotoxic; extreme values may be limits of the assay; settings: 10 µM

Row | Compound | time to death of most cells in well [1] | time to death of most cells in well ([2]; screen: 2) | time to death of most cells in well ([2]; screen: 3) | time to death of most cells in well ([2]; screen: 4)
1 | COc1cccc(-n2c(=O)[nH]c3cc(Cl)n(-c4ccc(-c5cccc(OC)c5O)cc4)c3c2=O)c1 | > 7 | > 7 | > 7 | > 7
2 | COc1cc(CCc2cc(NC(=O)c3ccc(N4CC(C)NC(C)C4)cc3)n[nH]2)cc(OC)c1 (stereo unspecified) | > 7 | > 7 | > 7 | 5
3 | C=CC(=O)N1CCCC(n2c(=O)n(-c3ccc(Oc4ccccc4)cc3)c3c(N)ncnc32)C1 (stereo unspecified) [ONO-4059 analogue] | 5 | 3 | > 7 | > 7
4 | COc1ccc(-c2ccc3c(N4CCOC[C@@H]4C)nc(N4CCOC[C@@H]4C)nc3n2)cc1CO | > 7 | 5.5 | > 7 | > 7
5 | C=CC(=O)Nc1cccc(Nc2nc(Nc3ccc(N4CCN(C(C)=O)CC4)cc3OC)ncc2C(F)(F)F)c1 [Rociletinib (CO-1686, AVL-301)] | > 7 | > 7 | > 7 | > 7
6 | Cc1nc(Nc2cnn(C3CCNCC3)c2)nc2c1N(C)C(=O)c1cc3ccccc3cc1N2C | 4 | 3 | 5.5 | 5.5
7 | CNC(=O)c1cc(Oc2ccc(NC(=O)Nc3cc(C(C)(C)C)nn3-c3ccc4ncccc4c3)c(F)c2)ccn1 [Rebastinib (DCC-2036)] | 6 | 6 | > 7 | > 7
8 | CC(C)[C@H](CO)Nc1nc(Nc2cccc(Cl)c2)c2ncn(C(C)C)c2n1 [Purvalanol A] | > 7 | > 7 | > 7 | > 7
9 | Cc1nc(NC(=O)N2CCC[C@H]2C(N)=O)sc1-c1ccnc(C(C)(C)C(F)(F)F)c1 [Alpelisib (BYL719)] | > 7 | 6 | > 7 | > 7
10 | COc1cc(F)c(F)c(Nc2ccc(I)cc2F)c1NS(=O)(=O)C1(C[C@H](O)CO)CC1 [Refametinib (RDEA119, Bay 86-9766)] | > 7 | > 7 | > 7 | > 7
11 | O=c1[nH]c2ccccc2n1C1CCN(Cc2ccc(-c3[nH]c4cc5ncnc5cc4nc3-c3ccccc3)cc2)CC1 | > 7 | 4 | > 7 | > 7
12 | COC(=O)c1ccc2c(C(=Nc3ccc(N(C)C(=O)CN4CCN(C)CC4)cc3)c3ccccc3)c(O)[nH]c2c1 [Nintedanib (BIBF 1120)] | 2 | > 7 | > 7 | > 7
13 | CC(C)(O)CC(=O)NCCn1ccc2ncnc(Nc3ccc(Oc4cccc(C(F)(F)F)c4)c(Cl)c3)c21 | > 7 | 5 | > 7 | > 7
14 | Oc1c(F)cc(-c2cnccc2-c2ccc(N3CCOCC3)cc2)cc1F | 2.5 | 2 | > 7 | > 7
15 | COc1ccccc1-c1cc(Nc2cccc(CS(N)(=O)=O)c2)ncn1 | 0 | > 7 | > 7 | > 7
16 | CNc1nc(Nc2cnn(C3CCN(C4COC4)CC3F)c2Cl)ncc1C(F)(F)F (stereo unspecified) | 6.5 | 3 | > 7 | > 7
17 | CNc1nc(Nc2cn(C(C)(C)C#N)nc2C)ncc1C(F)(F)F | 3 | 1 | > 7 | > 7
18 | CN1CCN(C2CCN(C(=O)Nc3cc(Oc4ccc(NC(=O)C5(C(=O)Nc6ccc(F)cc6)CC5)c(F)c4)ccn3)CC2)CC1 [Golvatinib (E7050)] | > 7 | > 7 | > 7 | > 7
19 | CO[C@H]1C[C@@H]2CC[C@@H](C)[C@@](O)(O2)C(=O)C(=O)N2CCCC[C@H]2C(=O)O[C@H]([C@H](C)C[C@@H]2CC[C@@H](OC(=O)C(C)(CO)CO)[C@H](OC)C2)CC(=O)[C@H](C)/C=C(\C)[C@@H](O)[C@@H](OC)C(=O)[C@H](C)C[C@H](C)/C=C/C=C/C=C/1C | 2 | > 7 | > 7 | > 7
20 | O=C(Nc1c[nH]nc1-c1nc2ccc(CN3CCOCC3)cc2[nH]1)NC1CC1 | 4.5 | 3 | 5 | > 7
21 | CNC(=O)c1nn(C)c2c1C(C)(C)Cc1cnc(Nc3ccc(N4CCN(C)CC4)cc3)nc1-2 | 6 | 5 | 6 | > 7
22 | COc1cc(Nc2nc3ccccc3nc2NS(=O)(=O)c2ccc(NC(=O)c3ccc(C)c(OC)c3)cc2)cc(OC)c1 | > 7 | 6.5 | > 7 | > 7
23 | O=C(Nc1cccc(Cl)c1)Nc1ncc(CCNc2ncnc3ccsc23)s1 [SNS-314 Mesylate] | > 7 | > 7 | > 7 | > 7
24 | Nc1ncnc2c1c(-c1cccc(OCc3ccccc3)c1)cn2C1CC(CN2CCC2)C1 (stereo unspecified) | 5 | 2.5 | > 7 | 3.5
